Measured values taken from the supplement of paper PMC11876631.
± gives the standard deviation of the averaged measurements. Laboratory Escherichia coli strains with one amino-acid change in an essential protein, pooled on minimal glucose agar with carbenicillin or gentamicin at twice the control MIC (plus kanamycin and chloramphenicol for the plasmids), 48 h. Fold change of barcode share against drug-free plates; higher = less susceptible. Active = above 20 in both replicates (the paper's putatively resistant). '<' = one read or none on drug, '>' = one read or none on a drug-free plate. Shares are relative, so most strains fall below 1 when a few take over. Listed are strains with at least 15 reads on both drug-free plates, and hits; most hits rest on fewer reference reads. Replicate rank correlation about 0.5. Edits are read from barcodes.

Molecular target: Escherichia coli (laboratory strain)
Test: barcode share on antibiotic plates over drug-free plates; higher = less susceptible
Description: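 A pool of E. coli strains, each edited to carry one amino-acid change in an essential protein, was grown for 48 h on minimal glucose agar with or without antibiotic; strain barcodes were sequenced; mean of two replicates.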

[1] = antibiotic: carbenicillin, 2× MIC (3.1 µg/mL)
[2] = antibiotic: gentamicin, 2× MIC (MIC 0.45 µg/mL)

Protein	fold change of barcode share [1]	fold change of barcode share [2]
cysG I440W (protein) MDHLPIFCQLRDRDCLIVGGGDVAERKARLLLDAGARLTVNALAFIPQFTAWADAGMLTLVEGPFDESLLDTCWLAIAATDDDALNQRVSEAAEARRIFCNVVDAPKAASFIMPSIIDRSPLMVAVSSGGTSPVLARLLREKLESLLPLHLGQVAKYAGQLRGRVKQQFATMGERRRFWEKLFVNDRLAQSLANNDQKAITETTEQLINEPLDHRGEVVLVGAGPGDAGLLTLKGLQQIQQADVVVYDRLVSDDIMNLVRRDADRVFVGKRAGYHCVPQEEINQILLREAQKGKRVVRLKGGDPFIFGRGGEELETLCNAGIPFSVVPGITAASGCSAYSGIPLTHRDYAQSVRLITGHLKTGGELDWENLAAEKQTLVFYMGLNQAATIQQKLIEHGMPGEMPVAIVENGTAVTQRVIDGTLTQLGELAQQMNSPSLIWIGRVVGLRDKLNWFSNH	1.16 ± 0.46	
cysG I440P (protein) MDHLPIFCQLRDRDCLIVGGGDVAERKARLLLDAGARLTVNALAFIPQFTAWADAGMLTLVEGPFDESLLDTCWLAIAATDDDALNQRVSEAAEARRIFCNVVDAPKAASFIMPSIIDRSPLMVAVSSGGTSPVLARLLREKLESLLPLHLGQVAKYAGQLRGRVKQQFATMGERRRFWEKLFVNDRLAQSLANNDQKAITETTEQLINEPLDHRGEVVLVGAGPGDAGLLTLKGLQQIQQADVVVYDRLVSDDIMNLVRRDADRVFVGKRAGYHCVPQEEINQILLREAQKGKRVVRLKGGDPFIFGRGGEELETLCNAGIPFSVVPGITAASGCSAYSGIPLTHRDYAQSVRLITGHLKTGGELDWENLAAEKQTLVFYMGLNQAATIQQKLIEHGMPGEMPVAIVENGTAVTQRVIDGTLTQLGELAQQMNSPSLIPIGRVVGLRDKLNWFSNH	> 29.7 [active]	
cysG I439A (protein) MDHLPIFCQLRDRDCLIVGGGDVAERKARLLLDAGARLTVNALAFIPQFTAWADAGMLTLVEGPFDESLLDTCWLAIAATDDDALNQRVSEAAEARRIFCNVVDAPKAASFIMPSIIDRSPLMVAVSSGGTSPVLARLLREKLESLLPLHLGQVAKYAGQLRGRVKQQFATMGERRRFWEKLFVNDRLAQSLANNDQKAITETTEQLINEPLDHRGEVVLVGAGPGDAGLLTLKGLQQIQQADVVVYDRLVSDDIMNLVRRDADRVFVGKRAGYHCVPQEEINQILLREAQKGKRVVRLKGGDPFIFGRGGEELETLCNAGIPFSVVPGITAASGCSAYSGIPLTHRDYAQSVRLITGHLKTGGELDWENLAAEKQTLVFYMGLNQAATIQQKLIEHGMPGEMPVAIVENGTAVTQRVIDGTLTQLGELAQQMNSPSLAIIGRVVGLRDKLNWFSNH	0.402 ± 0.12	0.00934 ± 0.0056
cysG I439W (protein) MDHLPIFCQLRDRDCLIVGGGDVAERKARLLLDAGARLTVNALAFIPQFTAWADAGMLTLVEGPFDESLLDTCWLAIAATDDDALNQRVSEAAEARRIFCNVVDAPKAASFIMPSIIDRSPLMVAVSSGGTSPVLARLLREKLESLLPLHLGQVAKYAGQLRGRVKQQFATMGERRRFWEKLFVNDRLAQSLANNDQKAITETTEQLINEPLDHRGEVVLVGAGPGDAGLLTLKGLQQIQQADVVVYDRLVSDDIMNLVRRDADRVFVGKRAGYHCVPQEEINQILLREAQKGKRVVRLKGGDPFIFGRGGEELETLCNAGIPFSVVPGITAASGCSAYSGIPLTHRDYAQSVRLITGHLKTGGELDWENLAAEKQTLVFYMGLNQAATIQQKLIEHGMPGEMPVAIVENGTAVTQRVIDGTLTQLGELAQQMNSPSLWIIGRVVGLRDKLNWFSNH	0.783 ± 0.31	0.0188 ± 0.017
cysG I439Q (protein) MDHLPIFCQLRDRDCLIVGGGDVAERKARLLLDAGARLTVNALAFIPQFTAWADAGMLTLVEGPFDESLLDTCWLAIAATDDDALNQRVSEAAEARRIFCNVVDAPKAASFIMPSIIDRSPLMVAVSSGGTSPVLARLLREKLESLLPLHLGQVAKYAGQLRGRVKQQFATMGERRRFWEKLFVNDRLAQSLANNDQKAITETTEQLINEPLDHRGEVVLVGAGPGDAGLLTLKGLQQIQQADVVVYDRLVSDDIMNLVRRDADRVFVGKRAGYHCVPQEEINQILLREAQKGKRVVRLKGGDPFIFGRGGEELETLCNAGIPFSVVPGITAASGCSAYSGIPLTHRDYAQSVRLITGHLKTGGELDWENLAAEKQTLVFYMGLNQAATIQQKLIEHGMPGEMPVAIVENGTAVTQRVIDGTLTQLGELAQQMNSPSLQIIGRVVGLRDKLNWFSNH	0.521 ± 0.34	0.00932 ± 0.00094
cysG V245A (protein) MDHLPIFCQLRDRDCLIVGGGDVAERKARLLLDAGARLTVNALAFIPQFTAWADAGMLTLVEGPFDESLLDTCWLAIAATDDDALNQRVSEAAEARRIFCNVVDAPKAASFIMPSIIDRSPLMVAVSSGGTSPVLARLLREKLESLLPLHLGQVAKYAGQLRGRVKQQFATMGERRRFWEKLFVNDRLAQSLANNDQKAITETTEQLINEPLDHRGEVVLVGAGPGDAGLLTLKGLQQIQQADVAVYDRLVSDDIMNLVRRDADRVFVGKRAGYHCVPQEEINQILLREAQKGKRVVRLKGGDPFIFGRGGEELETLCNAGIPFSVVPGITAASGCSAYSGIPLTHRDYAQSVRLITGHLKTGGELDWENLAAEKQTLVFYMGLNQAATIQQKLIEHGMPGEMPVAIVENGTAVTQRVIDGTLTQLGELAQQMNSPSLIIIGRVVGLRDKLNWFSNH	0.463 ± 0.15	< 0.00545
